Source: the supplement of paper PMC4723716
± gives the uncertainty stated by the source. Over roughly 9,900 compounds, “viability index relative to DMSO control” has its median near 1; the lowest 2% begin near 0.85. The list shows a part of the results.

System: Plasmodium falciparum NF54 stage V gametocytes
Assay: viability index relative to DMSO control (fraction); higher = less gametocyte killing
Details: 2.5 µM, incubation time: 72 h
Summary of the method: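 In 1,536-well plates, 10 µl of serum-free medium holding P. falciparum NF54 stage V gametocytes (0.75% gametocytemia, 1.25% hematocrit) received compound at 2.5 µM for 72 hr at 37°C in low oxygen. After one to two hours with 3 µl of 2.5 µM MitoTracker Red CMXRos containing 0.13% saponin, red particles of 20–70 µm2 were counted in a single field per well. Viability index is reported as the particle count over the plate mean of wells treated with solvent only.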

[1] = library set: Broad Institute DOS

Row | SMILES | viability index [1] | viability index (library set: Broad Institute Blood Stage)
1 | C[C@@H]1CCCCO[C@@H](CN(C)S(=O)(=O)c2ccc(F)cc2)[C@H](C)CN([C@@H](C)CO)C(=O)c2cc(N(C)C)ccc2O1 | 1.05 ± 0.092 | –
2 | COc1ccc(S(=O)(=O)Nc2ccc3c(c2)OC[C@H](C)NC[C@@H](C)[C@@H](OC)CN(C)C3=O)cc1 | 1.06 ± 0.034 | –
3 | CN(C)C(=O)c1cccc(-c2ccc3c(c2)[C@H]2[C@H](CCN2Cc2nccs2)[C@H](CO)N3)c1 | 0.818 ± 0.014 | –
4 | CCCNC(=O)N1[C@H](CNC(=O)c2cccc(F)c2)[C@H](c2ccccc2)[C@@H]1CO | 0.974 ± 0.06 | –
5 | CC(C)NC(=O)Nc1cccc2c1O[C@@H](CN(C)C(=O)Nc1ccccc1)[C@@H](C)CN([C@@H](C)CO)C2=O | 1.04 ± 0.011 | –
6 | C[C@H]1CN([C@@H](C)CO)C(=O)c2cccc(NC(=O)Nc3ccc(C(F)(F)F)cc3)c2O[C@H]1CN(C)S(=O)(=O)c1cn(C)cn1 | 1.03 ± 0.037 | –
7 | CO[C@H]1CN(C)C(=O)c2cc(NC(=O)Nc3cc(F)ccc3F)ccc2OC[C@H](C)NC[C@H]1C | 0.959 ± 0.049 | –
8 | COCCNC(=O)C[C@@H]1CC[C@@H]2[C@H](COc3ccc(NS(=O)(=O)c4ccc(Cl)cc4)cc3C(=O)N2C)O1 | 1.19 ± 0.055 | –
9 | O=C(c1ccc2c(c1)OCO2)N1C[C@@H]2[C@H](c3ccccc31)[C@H](CO)N2C(=O)CC1CC1 | 1.07 ± 0.021 | –
10 | C[C@@H]1CN([C@H](C)CO)C(=O)Cc2cc(NC(=O)C3CCCCC3)ccc2O[C@@H]1CN(C)Cc1ccc(Cl)c(Cl)c1 | 0.92 ± 0.072 | –
11 | C[C@H](CO)N1C[C@H](C)[C@H](CN(C)C(=O)Nc2cccc3ccccc23)Oc2c(NC(=O)C3CCOCC3)cccc2C1=O | 0.961 ± 0.19 | –
12 | C[C@@H](NC(=O)[C@@H]1[C@@H](CO)[C@@H]2Cn3c(cccc3=O)[C@@H]2N1CCC(F)(F)F)c1ccccc1 | 1.05 ± 0.015 | –
13 | O=C(C[C@H]1CC[C@H]2[C@@H](COC[C@@H](O)CN2CCC(F)(F)F)O1)NCc1ccc2c(c1)OCO2 | 1.05 ± 0.032 | –
14 | C[C@@H](NC(=O)C[C@@H]1C=C[C@H](NS(=O)(=O)c2cccc(F)c2)[C@@H](CO)O1)c1ccccc1 | 1.07 ± 0.15 | –
15 | O=C(c1ccc2c(c1)OCO2)N1C[C@H]2[C@@H](c3ccccc31)[C@@H](CO)N2C(=O)CC1CC1 | 1.04 ± 0.13 | –
16 | O=C(c1cccc(F)c1)N1CC(=O)N2[C@H](C1)[C@H](c1ccc(/C=C/c3ccccc3)cc1)[C@@H]2CO | 1.07 ± 0.012 | –
17 | C[C@@H]1CN([C@H](C)CO)C(=O)CCCn2nncc2CO[C@@H]1CN(C)Cc1ccc2cccnc2c1 | 1.06 ± 0.06 | –
18 | COc1cccc(C#Cc2ccc3c(c2)O[C@@H](CN(C)C(=O)CN2CCOCC2)[C@@H](C)CN([C@@H](C)CO)S3(=O)=O)c1 | 0.965 ± 0.087 | –
19 | CO[C@@H]1CN(C)C(=O)c2ccc(NS(C)(=O)=O)cc2OC[C@@H](C)N(S(=O)(=O)CC(F)(F)F)C[C@H]1C | 1.0226 ± 0.00026 | –
20 | COc1cccc(-c2ccc([C@@H]3[C@@H]4CN(C(=O)C5CCCCC5)C[C@H]3N4)cc2)c1 | 0.956 ± 0.039 | –
21 | COc1ccc(-c2ccccc2[C@H]2[C@@H](C#N)N(C(=O)C3CCCC3)[C@H]2CO)cc1 | – | 0.907 ± 0.054
22 | O=C(C[C@H]1C[C@H]2c3cc(NS(=O)(=O)c4ccc(F)cc4)ccc3O[C@H]2[C@H](CO)O1)NCc1cccnc1 | 1.0511 ± 0.001 | –

Row | SMILES | viability index [1] | viability index (library set: Broad Institute Blood Stage)
23 | COc1cccc(C(=O)Nc2ccc3c(c2)C(=O)N(C)[C@H]2CC[C@@H](CC(=O)N[C@@H](C)c4ccccc4)O[C@@H]2CO3)c1 | 1.14 ± 0.094 | –
24 | COc1ccc(NC(=O)N2CC(=O)N3[C@H](CO)[C@@H](c4ccc(Br)cc4)[C@@H]3C2)cc1 | 1.04 ± 0.031 | –
25 | Cc1noc(C)c1S(=O)(=O)N(C)C[C@@H]1OCCCC[C@@H](C)Oc2ccc(N(C)C)cc2C(=O)N([C@@H](C)CO)C[C@H]1C | 0.635 ± 0.13 | –
26 | COc1ccc([C@@H]2C/C=C\C[C@@H](c3ccc4c(c3)OCO4)NC(=O)[C@H](c3ccccc3)CC(=O)N2)c(OC)c1 | 0.919 ± 0.075 | –
27 | CN(C)C(=O)c1ccc(-c2ccc([C@H]3[C@@H]4CN(C(=O)C5CC5)C[C@H]3N4)cc2)cc1 | 1.05 ± 0.054 | –
28 | COc1ccc2c3c([nH]c2c1)[C@H](CO)NC[C@]31CN(C1)S(=O)(=O)c1cccs1 | 1.03 ± 0.026 | –
29 | C[C@@H]1CN([C@H](C)CO)C(=O)c2cc(C#Cc3ccccc3)cnc2O[C@H]1CN(C)C(=O)c1ccccc1 | 0.965 ± 0.019 | –
30 | Cn1cnc(S(=O)(=O)N2CC[C@@H]3[C@H](CO)Nc4ccc(C5=CCCCC5)cc4[C@@H]32)c1 | 1.05 ± 0.08 | –
31 | O=S(=O)(c1cccc(F)c1)N1CC[C@@H]2[C@@H](CO)Nc3ccc(C#Cc4ccccc4F)cc3[C@@H]21 | 1.07 ± 0.025 | –
32 | CCCNC(=O)N1[C@H](C#N)[C@@H](c2ccc(-c3ccccc3F)cc2)[C@@H]1CO | 1.08 ± 0.053 | –
33 | COc1ccc(NC(=O)N2CC(=O)N3[C@H](CO)[C@H](c4ccc(Br)cc4)[C@H]3C2)cc1 | 0.988 ± 0.017 | –
34 | CN(C)CC(=O)N1[C@H](CO)[C@H](c2ccc(C#CC3CCCCC3)cc2)[C@@H]1C#N | 1.09 ± 0.038 | –
35 | N#C[C@H]1[C@@H](c2ccccc2C2=CCCC2)[C@@H](CO)N1C(=O)NC1CCCCC1 | 1.07 ± 0.11 | –
36 | C[C@@H]1CCCCO[C@@H](CN(C)C(=O)CCC(F)(F)F)[C@@H](C)CN([C@@H](C)CO)C(=O)c2cc(NC(=O)C3CCCCC3)ccc2O1 | 1.08 ± 0.13 | –
37 | COCC(=O)Nc1ccc2c(c1)C(=O)N(C)C[C@H](OC)[C@@H](C)CN(C(=O)c1ccncc1)[C@@H](C)CO2 | 1.13 ± 0.027 | –
38 | Cc1ccc(S(=O)(=O)Nc2ccc3c(c2)C(=O)N(C)[C@H]2CC[C@H](CC(=O)NCCc4ccncc4)O[C@H]2CO3)cc1 | 1.01 ± 0.021 | –
39 | CO[C@@H]1CC[C@H]2CCOc3ccc(C#N)cc3C(=O)N(C)[C@@H](C)C(=O)N(C)C[C@@H]1O2 | 0.987 ± 0.024 | –
40 | C/C=C/c1ccc([C@@H]2[C@@H](CNC(=O)CC3CC3)N(C(=O)CC)[C@H]2CO)cc1 | 0.994 ± 0.033 | –
41 | CCS(=O)(=O)NCC[C@@H]1CC[C@@H](NS(=O)(=O)c2ccccc2C)[C@H](CO)O1 | 1.13 ± 0.05 | –
42 | Cc1ccc(S(=O)(=O)Nc2ccc3c(c2)C(=O)N([C@@H](C)CO)C[C@H](C)[C@H](CN(C)S(=O)(=O)c2cccs2)OCCCC[C@H](C)O3)cc1 | 1.05 ± 0.028 | –
43 | CNC(=O)C[C@@H]1CC[C@@H]2[C@H](COc3ccc(NS(=O)(=O)c4ccc(F)cc4)cc3C(=O)N2C)O1 | 1.09 ± 0.014 | –
44 | CO[C@H]1CN(C)C(=O)c2cc(NC(=O)c3cccc(F)c3)ccc2OC[C@@H](C)N(C)C[C@@H]1C | 1.02 ± 0.048 | –
